Laboratory results published in publication PMC12136788.
This is one part of the list.

B1: chr3:31636526:31636632:+|3pUTR|ENSG00000163527|unk|FALSE|unique (ssRNA)
RNA: GGGAGUUCUACAGUCCGACGAUCCAAAAUGUGAUGAGAGCUUCUUGAACCGGUAAACUAGUACAGGUCUGAGAAAGACAUAUUAGAAGAAUCAUUAUACUUCCUUGAAUUAUAUUUAUUUUCAUGUUUCUCUAAUGCAAAGAACAACAGAGGAUUGAGCAUCA
B2: chrX:150768173:150768360:-|3pUTR|ENSG00000102181|msi1|FALSE|unique (ssRNA)
RNA: GGGAGUUCUACAGUCCGACGAUCUCCCAUCUGAUUCCAUAGGGGGCUGGGUGUGGCCUUCGGGUUGACAUGAGAAAGGUCUUUAGCAAUCAUUUCUGCACCGGAGAUGAGUUUUAUCCUGUGUUGGGGAGAGGUGCUCACCCUCAACAGAGGAUUGAGCAUCA
B3: chr1:166069298:166070240:-|three_prime_utr|ENSG00000188859|control|control|control (ssRNA)
RNA: GGGAGUUCUACAGUCCGACGAUCAGUUUCUGAGCCAAAGCAGACCUCUCGGUUUGCCAGCCUUUGCAGCCACUUUUGAAGAGUAGGGCUGCUCCUUGGGUGGUAGAACCAUAAUCCUUAGGAAAAAUCCCUUCCUCUUAGGAACAACAGAGGAUUGAGCAUCA
B4: ENSG00000198589:be:win_5301|CDS|ENSG00000198589|bound_else_gene|NA|bound_elsewhere_windowed (ssRNA)
RNA: GGGAGUUCUACAGUCCGACGAUCACCAGGCAGUAGAUCAUCUAAUGCAAAAUUGCCCUCAGUUCCAACAGUUGAUUCAGUUUCACAAGAUCCGGUUUCAAAUAUGAGUAUUACAGAGAGGCUUGAACACGCUUUGGAAAAGGCCAACAGAGGAUUGAGCAUCA
B5: chr19:582815:582998:+|CDS_3pUTR|ENSG00000172270|msi1_unk|total|mutant (ssRNA)
RNA: GGGAGUUCUACAGUCCGACGAUCUCAUACACUUCCUUCUUUUUUAAAAAAGUUGGGUUUUCUCCAUUCAGGAUUCUGUUCCUCCGGUUUUUUUCCUUCUGAAGUGUUUCACGAGAGCCCGGGAGCUGCUGCCCUGCGGCCCCGCAACAGAGGAUUGAGCAUCA
B6: chr19:51029091:51029457:-|three_prime_utr|ENSG00000186474|control|control|control (ssRNA)
RNA: GGGAGUUCUACAGUCCGACGAUCCCUUAACUUGGGUACCCCUCUGGCCCUCAGAGCACCAAUAUCUCCUCCAUCACUUCCCCUAGCUCCACUCUUGUUGGCCUGGGAACUUCUUGGAACUUUAACUCCUGCCAGCCCUUCUAACAACAGAGGAUUGAGCAUCA
B7: chr17:67075675:67075776:-|3pUTR|ENSG00000198265|unk|total|mutant (ssRNA)
RNA: GGGAGUUCUACAGUCCGACGAUCAUUCCUUAUUUCCACCGCCAGUCAAGGAUUCUAACGCUGCUUCCAUCUGAUACUCUUCUCCGAUUCUGCAUCAAAUGCUUAUUUUGACUUACAACAAGCUUACUCUUCCUCAGCAUUACACAACAGAGGAUUGAGCAUCA
B8: chrX:154436128:154436291:+|3pUTR|ENSG00000071553|msi1_unk|total|mutant (ssRNA)
RNA: GGGAGUUCUACAGUCCGACGAUCAUUCCCGGGUCUCCUUUCUCCUUAUUUAUUCUUGUGGCUACAUCAUCCCUGGCUGUGGACCGUGCUUUUGUGCCGCAAAUGCUCCCUCCUUAAGGUUACCGGGCUCCCUGAGUUUGGGAGCAACAGAGGAUUGAGCAUCA
B9: ENSG00000064393:stop:overlap|stop_codon|ENSG00000064393|stop_codon|NA|stop_codon (ssRNA)
RNA: GGGAGUUCUACAGUCCGACGAUCUCUCCCUGGAGAGUGGUUUUCCUGCUUUUCUGCUGCUAGAAAUGUUGCUGUAUGGGAGCUAGUACAAUAGAAAGUGCCCAGUGACUGCAGGCGACCCUUACCGAGGAUUUUAUUCAAGUACAACAGAGGAUUGAGCAUCA
B10: chr17:29548703:29548809:+|3pUTR|ENSG00000160551|unk|FALSE|bound_elsewhere (ssRNA)
RNA: GGGAGUUCUACAGUCCGACGAUCAGCACUUGUGAGUGAAAAAUCAUGUAAUUAUCUGUAAAUAUGUAGCUAACAAAUUGACCUAGUUUCUGUAUUUUUUUGUUUUUGUACUAAAGUUUAUAGGUCUGUGCCAGCUAGAGAGAACAACAGAGGAUUGAGCAUCA
B11: chr6:87085629:87085739:-|3pUTR|ENSG00000135346|unk|total|mutant (ssRNA)
RNA: GGGAGUUCUACAGUCCGACGAUCGUUUUACCAAGUGCUGUCUUGAUGACUGCUGAUUUUCUGGAAUGGAAAAUUAAGUUGUUCCGUGUUUAUGGCUUUGUGAGAUAAAACUCUCCUUUUCCUUACCAUACCACUUUGACACGCCAACAGAGGAUUGAGCAUCA
B12: chr5:177595998:177596040:+|3pUTR|ENSG00000184840|msi1_unk|FALSE|overlapping (ssRNA)
RNA: GGGAGUUCUACAGUCCGACGAUCCCUGAGCUGCUUCACAUGGUUGUCCAUUCUGGGGCUUAAAGAACUGGGACCAGACCAAGUAGAGGCCUUGGUGCUGGUUGGGGUGGGGCCUGCAGAGUCUUAGUUACUGAUUUCAUUUUCCAACAGAGGAUUGAGCAUCA
B13: chr15:38485071:38485172:+|3pUTR|ENSG00000171262|unk|total|mutant (ssRNA)
RNA: GGGAGUUCUACAGUCCGACGAUCUUGCCUCACCUGUAUUGCUGUGGAUGUGUUUUGUGGGUUUUUCAUUCGAUUUUACAAAACCGGGAAAGGCACUUCCAGUUGUAUUCCGCCGGCAGUUGUUGUGAAUCAUUUUUUUCUCUUCAACAGAGGAUUGAGCAUCA
B14: ENSG00000198589:be:win_2301|CDS|ENSG00000198589|bound_else_gene|NA|bound_elsewhere_windowed (ssRNA)
RNA: GGGAGUUCUACAGUCCGACGAUCGCUAGCUGAAAGGCUCAUGCUUCAGACAAAUUUAAUCACAAUGACCACAUAUAAUGUGCUGUUUGAGAUUCUUAUAGAACAGAUUGGUACUCAGGUGAUACAUAAACAGCAUCCAGAUCCCAACAGAGGAUUGAGCAUCA
B15: ENSG00000070961:be:win_4951|3pUTR|ENSG00000070961|bound_else_gene|NA|bound_elsewhere_windowed (ssRNA)
RNA: GGGAGUUCUACAGUCCGACGAUCGGUAACAGCCCCAUGAAGUACCGCUUUAAUUCCUUGCUGGUAAUCUAAUAGAAUCAGAUUAAGAAAAUUAACACAAUUUUACCAUUUGACAUACUCUUCAUUGAAUUUAGUUUGUCUAAACAACAGAGGAUUGAGCAUCA
B16: chr3:121987322:121988366:-|three_prime_utr|ENSG00000145103|control|control|control (ssRNA)
RNA: GGGAGUUCUACAGUCCGACGAUCCCAAGCACAGCACAACUUCUGUGGCUACUUCUCGGCUCCUGUGUGUCAUCAGCAUCACCUAGGUUUCCAGCUGACUUGGGAACUGCAAGUCUGAGUCUAACAGUUUUUGGCUUAGAUUCUCAACAGAGGAUUGAGCAUCA
B17: chr17:31995613:31995700:+|CDS|ENSG00000178691|msi1_unk|FALSE|overlapping (ssRNA)
RNA: GGGAGUUCUACAGUCCGACGAUCAGCAUGUCUGAAUUUCUUGAAUCUGAAGAUGGGGAAGUAGAACAGCAAAGAACAUAUAGUAGUGGCCACAAUCGUCUGUAUUUCCAUAGUGAUACCUGCUUACCUCUCCGUCCACAAGAACAACAGAGGAUUGAGCAUCA
B18: chr17:81922623:81922724:-|CDS|ENSG00000197063|msi1|FALSE|unique (ssRNA)
RNA: GGGAGUUCUACAGUCCGACGAUCUGCCGCCGGCCUGGGGCCCCUCGUCCCAGGCAAGGUGGCCGCCACCAGCGUCAUCACAAUAGUAAAGUCCAAGACGGAUGCCCGAUCGUAGGGACGCGCGUCUGCCCAGGCGGGUCUUUGCAACAGAGGAUUGAGCAUCA
B19: chr6:149811313:149811414:+|3pUTR|ENSG00000120265|msi1|total|mutant (ssRNA)
RNA: GGGAGUUCUACAGUCCGACGAUCUGUUUCUAAUUUGCUGCUGAUAAUGUAUAUGAACUUAACAUGCUGUGUAAGCUGUGUCCCCGUUCUUGAACAGUUUAUGCAGUGCUGCUUUGCCAAAUAAAGUUAAAAGUAAAAGAGGCACAACAGAGGAUUGAGCAUCA
B20: chr12:52170242:52170446:-|3pUTR|ENSG00000167767|msi1|total|mutant (ssRNA)
RNA: GGGAGUUCUACAGUCCGACGAUCUGGCCCUCCCCUCCUUGGCAUUCAUGGGGGAGCCCAGGAACCCCCCACACCUAUGGGGUCCGAGCUCCUCCUUUCUUCUCACUCCUUCCCCUUCCUCCCUCCAUGCCCACUCCCCCUGCCCAACAGAGGAUUGAGCAUCA
B21: chr8:41263181:41263319:-|3pUTR|ENSG00000104332|msi1|FALSE|unique (ssRNA)
RNA: GGGAGUUCUACAGUCCGACGAUCCUUAAGUGAUUUGCCUGUAAUUUUGGAUGAUUAAAAAAUGUGUAUAUAUAUUAGCUAAUUAGAAAUAUUCUACUUCUCUGUUGUCAAACUGAAAUUCAGAGCAAGUUCCUGAGUGCGUGGCAACAGAGGAUUGAGCAUCA
B22: ENSG00000075240:stop:overlap|stop_codon|ENSG00000075240|stop_codon|NA|stop_codon (ssRNA)
RNA: GGGAGUUCUACAGUCCGACGAUCAGACCAUUCUCAGCCAGUACAUCAAGAUCACCUCAGCGGCAGCGUCUGGCGGGGACAGCUAGUAUUGACUUGCCCAGGACGUUGCUGGAAUUUUCUUUUUCUUUUUCUUUUUCUUUUUUUCAACAGAGGAUUGAGCAUCA

Target: MSI1 full-length (mouse, UniProt Q61474 1-362)
Chain of UniProt Q61474 (Q61474 whole entry): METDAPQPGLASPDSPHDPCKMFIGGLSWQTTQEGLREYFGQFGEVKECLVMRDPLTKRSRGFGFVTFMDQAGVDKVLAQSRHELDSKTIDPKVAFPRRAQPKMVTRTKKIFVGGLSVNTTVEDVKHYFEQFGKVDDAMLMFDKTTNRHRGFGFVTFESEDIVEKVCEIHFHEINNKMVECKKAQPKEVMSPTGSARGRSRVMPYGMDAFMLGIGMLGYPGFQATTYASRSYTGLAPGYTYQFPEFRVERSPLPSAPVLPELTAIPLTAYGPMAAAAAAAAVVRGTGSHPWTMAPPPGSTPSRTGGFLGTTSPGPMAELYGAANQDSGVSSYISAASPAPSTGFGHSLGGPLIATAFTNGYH
Assay: nsRBNS (natural sequence RNA bind-n-seq); RBNS binding buffer (assumed for nsRBNS): 25 mM Tris pH 7.5, 150 mM KCl, 3 mM MgCl2, 0.01% Triton X-100, 500 ug/ml BSA, 20 U/ml SUPERase-In, 4 C; UNK is unkempt and MSI1 is Musashi-1; names of the RNAs are library labels; protein concentration not given here; high values mean tight binding

| Binder | binding signal [enrichment R] |
| --- | --- |
| B1 | 2.07 |
| B2 | 0.563 |
| B3 | 0.442 |
| B4 | 0.342 |
| B5 | 0.335 |
| B6 | 0.887 |
| B7 | 0.844 |
| B8 | 0.523 |
| B9 | 0.605 |
| B10 | 12 |
| B11 | 0.394 |
| B12 | 0.677 |
| B13 | 0.279 |
| B14 | 0.687 |
| B15 | 1.43 |
| B16 | 0.365 |
| B17 | 1.89 |
| B18 | 0.472 |
| B19 | 0.488 |
| B20 | 0.823 |
| B21 | 21.3 |
| B22 | 1.79 |
